Test system: cAMP
Assay: Fluorescence response of cAMP sensors to isoproterenol in HEK 293 cells co-expressing the beta adrenergic receptor
Format: cell-based, human
Conditions: in response to isoproternol
Experimental: To test the functionality of these 28 prototype sensors, each construct was co-expressed with the beta adrenergic receptor, which couples to the Gs signaling pathway when activated by isoproteronol, in HEK 293 cells, and the fluorescence measured as described below. Briefly, 96-well glass-bottom plates were coated with Poly-D-Lysine (Fisher Scientific, Pittsburgh, Pa.) and HEK 293 were seeded and cultured in EMEM (ATCC, Manassas, Va.) supplemented with 10% fetal bovine serum and Penicillin-Streptomycin at 37 […] and 30 ng of beta adrenergic receptor per well, using Lipofectamine 2000 Transfection Reagent (Life Technologies, Grand Island, N.Y.) according to the manufacturer's protocol, and incubated for 24-48 hours at 37° C. in 5% CO2.
Prior to screening transfected cells for fluorescence, he EMEM culture medium was removed and 1×DPBS added to each well. A Zeiss Axiovert S100TV inverted microscope equipped with computer controlled excitation/emission filter wheels, shutters, and a Qimaging Retiga Exi CCD camera (Surrey, BC Canada) was used to image cells at 25e A) supplemented with 10% fetal bovine serum and Penicillin-Streptomycin at 37hn filters were used to resolve the green fluorescence from the cAMP sensors. Cells were analyzed for increases or decreases in fluorescence intensity upon addition of isoproternol, DMSO, forskolin and IBMX. To analyze the image stacks, background fluorescence was defined as a region of the image that contained no cells. The average value of this region was subtracted frame by frame from the measurements of the mean pixel values of the fluorescent cells. Fluorescence intensity data was plotted and analyzed with IGOR (Wavemetrics, Oswego, Oreg.).
For transient expression and screening in an automated fluorescence plate reader, HEK 293T cells were cultured in Corning Co-Star Polystyrene 96-well plates coated with Poly-D-Lysine. HEK293T cells were plated at 35,000 cells/well in 100 μl growth medium per well without antibiotics so that the cells would be 90-95% confluent at the time of transfection (approximately 24 hours later). For each transfection (i.e. one well in a 96-well plate), 160 ng of plasmid DNA (120 ng sensor+40 ng receptor) was diluted in […] and then the mixture was replaced with fresh medium. Prior to scanning a plate on the Biotek Synergy Mx, EMEM culture medium was replaced with 250 μl of 1×DPBS per well. Plates were read at 25° C., using monochromators set to 488/20 nm excitation and 530/20 nm emission to resolve the green fluorescence from the cAMP sensor.

| Molecule | Relative Change in Fluorescence |
| --- | --- |
| Library 2-2 E7: cAMP sensor; SEQID 5 in Table 1, SEQ ID NO: 6 in Table 3 (protein) MGSNNDRIPDKENTPLIEPHVPLRPANTITKVPSEKILRAGKILRNAILSRAPHMIRDRKYHLKTYRQCCVGTELVDWMMQQTPCVHSRTQAVGMWQVLLEDGVLNHVDQEHHFQDKYLFYRFLDDEHEDAPLPTEEEKKECDEELQDTMLLLSQMGPDAHMRMILRKPPGQRTVDDLEIIYEELLHIKALSHLSTTVKRELAGVLIFESHAKGGTVLFNQGEEGTSWYIILKGSVNVVIYGKGVVCTLHEGDDFGKLALVNDAPRAASIVLREDNCHFLRVDKEDFNRILRRANVYIKADKQKNGIKANFKIRHNIEDGGVQLAYHYQQNTPIGDGPVLLPDNHYLSVQSILSKDPNEKRDHMVLLEFVTAAGITLGMDELYKGGTGGSMVSKGEELFTGVVPIQVELDGDVNGHKFSVSGEGEGDATYGKLTLKFICTTGKLPVPWPTLVTTLTYGVQCFSRYPDHMKQHDFFKSAMPEGYIQERTIFFKDDGNYKTRAEVKFEGDTLVNRIELKGIDFKEDGNILGHKLEYN | −53% |
| Lib6-2 C1-T2: Best Downward sensor; SEQID 6 in Table 1, SEQ ID NO: 7 in Table 3 (protein) MVAAHAAHSSSSAEWIACLDKRPLERSSEDVDIIFTRLKEVKAFEKFHPNLLHQICLCGYYENLEKGITLFRQGDIGTNWYAVLAGSLDVKVSETSSHQDAVTICTLGIGTAFGESILDNTPRHATIVTRESSELLRIEQKDFKALWEKYRQYMAGLLAPPYGVMETGSNNDRIPDKENTPLIEPHVPLRPANTITKVPSEKILRAGKILRNAILSRAPHMIRDRKYHLKTYRQCCVGTELVDWMMQQTPCVHSRTQAVGMWQVLLEDGVLNHVDQEHHFQDKYLFYRFLDDEHEDAPLPTEEEKKECDEELQDTMLLLSQMGPDAHMRMILRKPPGQRTVDDLEIIYEELLHIKALSHLSTTVKRELAGVLIFESHAKGGTVLFNQGEEGTSWYIILKGSVNVVIYGKGVVCTLHEGDDFGKLALVNDAPRAASIVLREDNCHFLRVDKEDFNRILRLENVYIKADKQKNGIKANFKIRHNIEDGGVQLAYHYQQNTPIGDGPVLLPDNHYLSVQSILSKDPNEKRDHMVLLEFVTAAGITLGMDELYKGGTGGSMVSKGEELFTGVVPIQVELDGDVNGHKFSVSGEGEGDATYGKLTLKFICTTGKLPVPWPTLVTTLTYGVQCFSRYPDHMKQHDFFKSAMPEGYIQERTIFFKDDGNYKTRAEVKFEGDTLVNRIELKGIDFKEDGNILGHKLEYNTRKEDFNRILRDVEANTVRLKEHDQDVLVLEKVPAGNRASNQGNSQPQQKYTVMSGTPEKILEHFLETIRLEATLNEATDSVLNDFIMMHCVFMPNTQLCPALVAHYHAQPSQGTEQEKMDYALNNKRRVIRLVLQWAAMYGDLLQEDDVSMAFLEEFYVSVSDDARMIAALKEQLPELEKIVKQISEDAKAPQKKHKVLLQQFNTGDERAQKRQPIRGSDEVLFKVYCMDPTYTTIRVPVATSVKEVISAVADKLGSGEGLIIVKMSSGGEKVVLKPNDVSVFMTLTINGRLFACPREQFDSLTPLPEQEGPTVGTVGTFELMSSKDLAYQMTIYDWELFNCVHELELIYHTFGRHNFKKTTANLDLFLRRFNEIQFWVVTEICLCSQLSKRVQLLKKFIKIAAHCKEYKNLNSFFAIVMGLSNVAVSRLALTWEKLPSKFKKFYAEFESLMDPSRNHRAYRLTVAKLEPPLIPFMPLLIKDMTFTHEGNKTFIDNLVNFEKMRMIANTARTVRYYRSQPFNPDAAQANKNHQDVRSYVRQLNVIDNQRTLSQMSHRLEPRRP | −40% |
| EcpG10 G2: cAMP sensor; SEQID 4 in Table 1, SEQ ID NO: 5 in Table 3 (protein) MVAAHAAHSSSSAEWIACLDKRPLERSSEDVDIIFTRLKEVKAFEKFHPNLLHQICLCGYYENLEKGITLFRQGDIGTNWYAVLAGSLDVKVSETSSHQDAVTICTLGIGTAFGESILDNTPRHATIVTRESSELLRIEQKDFKALWEKYRQYMAGLLAPPYGVMETGSNNDRIPDKENTPLIEPHVPLRPANTITKVPSEKILRAGKILRNAILSRAPHMIRDRKYHLKTYRQCCVGTELVDWMMQQTPCVHSRTQAVGMWQVLLEDGVLNHVDQEHHFQDKYLFYRFLDDEHEDAPLPTEEEKKECDEELQDTMLLLSQMGPDAHMRMILRKPPGQRTVDDLEIIYEELLHIKALSHLSTTVKRELAGVLIFESHAKGGTVLFNQGEEGTSWYIILKGSVNVVIYGKGVVCTLHEGDDFGKLALVNDAPRAASIVLREDNCHFLRVDKEDFNRILRDVLENVYIKADKQKNGIKANFKIRHNIEDGGVQLAYHYQQNTPIGDGPVLLPDNHYLSVQSILSKDPNEKRDHMVLLEFVTAAGITLGMDELYKGGTGGSMVSKGEELFTGVVPIQVELDGDVNGHKFSVSGEGEGDATYGKLTLKFICTTGKLPVPWPTLVTTLTYGVQCFSRYPDHMKQHDFFKSAMPEGYIQERTIFFKDDGNYKTRAEVKFEGDTLVNRIELKGIDFKEDGNILGHKLEYNTREANTVRLKEHDQDVLVLEKVPAGNRASNQGNSQPQQKYTVMSGTPEKILEHFLETIRLEATLNEATDSVLNDFIMMHCVFMPNTQLCPALVAHYHAQPSQGTEQEKMDYALNNKRRVIRLVLQWAAMYGDLLQEDDVSMAFLEEFYVSVSDDARMIAALKEQLPELEKIVKQISEDAKAPQKKHKVLLQQFNTGDERAQKRQPIRGSDEVLFKVYCMDPTYTTIRVPVATSVKEVISAVADKLGSGEGLIIVKMSSGGEKVVLKPNDVSVFMTLTINGRLFACPREQFDSLTPLPEQEGPTVGTVGTFELMSSKDLAYQMTIYDWELFNCVHELELIYHTFGRHNFKKTTANLDLFLRRFNEIQFWVVTEICLCSQLSKRVQLLKKFIKIAAHCKEYKNLNSFFAIVMGLSNVAVSRLALTWEKLPSKFKKFYAEFESLMDPSRNHRAYRLTVAKLEPPLIPFMPLLIKDMTFTHEGNKTFIDNLVNFEKMRMIANTARTVRYYRSQPFNPDAAQANKNHQDVRSYVRQLNVIDNQRTLSQMSHRLEPRRP | 60% |
| Library 5-1 D2: cAMP sensor; SEQID 7 in Table 1, SEQ ID NO: 8 in Table 3 (protein) MVAAHAAHSSSSAEWIACLDKRPLERSSEDVDIIFTRLKEVKAFEKFHPNLLHQICLCGYYENLEKGITLFRQGDIGTNWYAVLAGSLDVKVSETSSHQDAVTICTLGIGTAFGESILDNTPRHATIVTRESSELLRIEQKDFKALWEKYRQYMAGLLAPPYGVMETGSNNDRIPDKENTPLIEPHVPLRPANTITKVPSEKILRAGKILRNAILSRAPHMIRDRKYHLKTYRQCCVGTELVDWMMQQTPCVHSRTQAVGMWQVLLEDGVLNHVDQEHHFQDKYLFYRFLDDEHEDAPLPTEEEKKECDEELQDTMLLLSQMGPDAHMRMILRKPPGQRTVDDLEIIYEELLHIKALSHLSTTVKRELAGVLIFESHAKGGTVLFNQGEEGTSWYIILKGSVNVVIYGKGVVCTLHEGDDFGKLALVNDAPRAASIVLREDNCHFLRVDKEDFNRILRDVLENVYIKADKQKNGIKANFKIRHNIEDGGVQLAYHYQQNTPIGDGPVLLPDNHYLSVQSILSKDPNEKRDHMVLLEFVTAAGITLGMDELYKGGTGGSMVSKGEEVSSGGVPIQVELDGDVNGHKFSVSGEGEGDATYGKLTLKFICTTGKLPVPWPTLVTTLTYGVQCFSRYPDHMKQHDFFKSAMPEGYIQERTIFFKDDGNYKTRAEVKFEGDTLVNRIELKGIDFKEDGNILGHKLEYNTRVEANTVRLKEHDQDVLVLEKVPAGNRASNQGNSQPQQKYTVMSGTPEKILEHFLETIRLEATLNEATDSVLNDFIMMHCVFMPNTQLCPALVAHYHAQPSQGTEQEKMDYALNNKRRVIRLVLQWAAMYGDLLQEDDVSMAFLEEFYVSVSDDARMIAALKEQLPELEKIVKQISEDAKAPQKKHKVLLQQFNTGDERAQKRQPIRGSDEVLFKVYCMDPTYTTIRVPVATSVKEVISAVADKLGSGEGLIIVKMSSGGEKVVLKPNDVSVFMTLTINGRLFACPREQFDSLTPLPEQEGPTVGTVGTFELMSSKDLAYQMTIYDWELFNCVHELELIYHTFGRHNFKKTTANLDLFLRRFNEIQFWVVTEICLCSQLSKRVQLLKKFIKIAAHCKEYKNLNSFFAIVMGLSNVAVSRLALTWEKLPSKFKKFYAEFESLMDPSRNHRAYRLTVAKLEPPLIPFMPLLIKDMTFTHEGNKTFIDNLVNFEKMRMIANTARTVRYYRSQPFNPDAAQANKNHQDVRSYVRQLNVIDNQRTLSQMSHRLEPRRP | 39% |

Source: patent US11366114B2, “Genetically encoded fluorescent sensors for detecting ligand bias and intracellular signaling through cAMP pathways” (MONTANA MOLECULAR LLC, priority 2013, dated 2022)
